The structures appear in SMILES notation. In all, about 45,000 compounds went through this assay and about 65 (0.1%) were called active. Calls follow the shape of the dose curve; as a rule, active = well fitted activation curve with a large enough effect; inconclusive = small, poorly fitted or top-dose-only effect; inactive = no such curve, though single readings can be large or run the other way. Some of the results follow. Numbered stars: 1 amine (or outer) side, 2 acyl side, 3 side chain; on linkers, the order of the positions; unused ones are H or OH. Bridge positions count the residues as written; N and C are the ends. Square brackets hold non-standard residues; d marks the D form. Peptide text beside a SMILES is read from it. I, II: the chains in the order shown. Actinocin(9to1) = Cc1c2oc3c(C)ccc(C(=O)[*:1])c3nc-2c(C(=O)[*:2])c(N)c1=O; NMeV = CN[C@H](C(=O)O)C(C)C; Sar = CNCC(=O)O

Chain of UniProt P54803 (P54803 whole entry, looked up): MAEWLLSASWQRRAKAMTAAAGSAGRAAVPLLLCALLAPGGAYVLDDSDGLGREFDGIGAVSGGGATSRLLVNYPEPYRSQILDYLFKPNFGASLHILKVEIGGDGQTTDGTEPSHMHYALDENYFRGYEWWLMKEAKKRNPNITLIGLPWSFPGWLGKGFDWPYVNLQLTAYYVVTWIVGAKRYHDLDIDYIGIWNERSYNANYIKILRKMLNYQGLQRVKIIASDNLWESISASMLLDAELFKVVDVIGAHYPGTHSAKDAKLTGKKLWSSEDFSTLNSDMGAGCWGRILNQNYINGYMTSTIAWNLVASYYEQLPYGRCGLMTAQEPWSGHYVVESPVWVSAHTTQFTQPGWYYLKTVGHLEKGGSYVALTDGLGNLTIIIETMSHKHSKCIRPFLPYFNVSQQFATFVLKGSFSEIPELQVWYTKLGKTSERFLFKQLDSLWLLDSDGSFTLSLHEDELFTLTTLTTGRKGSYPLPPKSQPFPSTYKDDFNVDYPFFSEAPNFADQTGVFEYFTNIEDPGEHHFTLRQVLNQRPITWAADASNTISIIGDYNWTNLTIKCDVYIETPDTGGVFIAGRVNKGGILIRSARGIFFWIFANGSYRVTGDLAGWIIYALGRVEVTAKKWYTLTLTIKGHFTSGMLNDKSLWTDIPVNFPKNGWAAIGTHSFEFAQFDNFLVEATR

For the assay, the target named is Galactocerebrosidase (Homo sapiens) (UniProt P54803). Description: A Novel Cell-Based Assay to Identify Small Molecules for B -Galactocerebrosidase. Also: 0% is about no effect; nearly all actives have a fitted effect of over 65% in size. To be noted: 145M-Twi-hGALC-G270D cells (Twitcher mouse brain line with human GALC G270D), HMU-beta-Gal fluorescence, 48 h; series mostly up to 57.5 µM; activation: at the top concentration. The method in brief:
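Brain-derived Twitcher mouse 145M-Twi cells stably expressing human GALC-G270D or wild-type GALC, treated live, then residual GALC activity read by fluorescence of HMU-b-Gal substrate (0.1 mM final) in citrate-phosphate buffer pH 5.2 with sodium taurocholate. Signal increase indicates enhancement.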
`CCOc1ccc(Nc2ncnc3scc(-c4ccc(OC)cc4)c23)cc1`: the “activation” value is inactive: -16.2%.
On to `CC(C)(C)OC(=O)N1CCC(c2c(C(=O)N3CCN(Cc4ccccc4)CC3)cnn2-c2ccc(Cl)cc2)CC1`, for which the “activation” value was inactive: -13.5%.
On to `Cn1cc(C(=O)NCCc2ccccc2)c(=O)c2cc(S(=O)(=O)N3CCCCC3)ccc21`, for which the “activation” value is inactive: -12.4%.
On to `Cc1cc(-c2ccc(C)c(S(=O)(=O)NCc3cccs3)c2)on1`, for which the “activation” value is inactive: -13.8%.
As for `CCc1ccc(N2C(=O)CN(S(=O)(=O)CC)CC2(C)C(=O)NC2CCCCC2)cc1` (configuration not stated), the “activation” value was inactive: 0.64%.
Under `CCOC(=O)c1c(C)[nH]c(C)c1S(=O)(=O)N1CCC(C(=O)Nc2ccc(C)c(N(C)C)c2)CC1` stands inactive: -6.74%; under `Cc1ccc(Nc2c(-c3ccc(C)o3)nc3cccc(C)n23)cc1`, inactive: -16%.
For the compound `O=c1c2oc3ccccc3c2n(Cc2ccc(Cl)cc2)c(=O)n1Cc1ccccc1`, the “activation” value was inactive: -11.1%.
For `CCC1CCCCN1C(=O)CCS(=O)(=O)c1cc2c(cc1C)NC(=O)CO2` (configuration not stated), the “activation” value is inactive: 6.88%.
Then `O=C(CNC(=O)c1ccccc1)OCc1cc(=O)n2nc(C3CC3)sc2n1`, with inactive: -6.98%; and `O=C(Nc1cc(F)ccc1F)c1ccc(CN2CC(=O)N3CCCCC3C2=O)cc1` (configuration not stated), with inactive: -12%.
Under `COc1ccc(-c2cc(=O)oc3c4c(ccc23)OCN(Cc2ccccc2)C4)cc1` stands inactive: -18.6%; under `CC1(C)OC(=O)Nc2ccc(Br)cc21`, inactive: -5.65%.
Then `Cc1cc(C)cc(-n2c(SCC(=O)N3CCCCCC3)nc3c([nH]c4ccccc43)c2=O)c1`, with inactive: -14.3%; and `CCS(=O)(=O)c1ncc(Cl)c(C(=O)NCc2ccccc2)n1`, with inactive: -10.2%.
With `O=C(Nc1cccc(C(F)(F)F)c1)C1CCN(S(=O)(=O)c2cccs2)CC1`, the “activation” value was inactive: -9.74%.
For the compound `CC(=O)Nc1c(C)nn(-c2ccccc2)c1N1CCC(C(=O)NCc2ccc(F)cc2)CC1`, the “activation” value was inactive: -8.35%.
Under `C=C(C)Cn1c(SCC(=O)c2ccccc2)nc2sc3c(c2c1=O)CCCC3` stands inactive: -5.38%.
Then `COc1cc(Cl)c(C)cc1NC(=O)Cn1c(C)c2cnn(-c3ccccc3)c(=O)c2c1C`, with inactive: -11.8%; and `CC(=O)c1ccc(NC(=O)CSc2nnc(N)s2)cc1`, with inactive: -5.38%.
Under `CCn1cc2nc(SCc3cccc(C(F)(F)F)c3)n(Cc3ccc(OC)cc3)c(=O)c2n1` stands inactive: -22.1%; under `CCOCCn1c(N2CCCN(C)CC2)nc2ccccc21`, inactive: 1.84%.
For the compound `Cc1ccccc1C(=O)N1CCC(C(=O)Nc2ccc(F)cc2F)CC1`, the “activation” value was inactive: 24.7%.
Under `CCCNC(=O)CN1CCN(c2ccc(NC(=O)c3ccc(OC)cc3)cc2C(=O)O)CC1` stands inactive: 1.15%; under `COc1ccc(CNC(=O)c2ccc(NC(=O)N3CCSc4ncccc43)cc2)cc1`, inactive: -5.84%; under `Cc1c2oc3c(C)ccc(C(=O)N[C@@H]4C(=O)N[C@H](C(C)C)C(=O)N5CCC[C@H]5C(=O)N(C)CC(=O)N(C)[C@@H](C(C)C)C(=O)O[C@@H]4C)c3nc-2c(C(=O)N[C@@H]2C(=O)N[C@H](C(C)C)C(=O)N3CCC[C@H]3C(=O)N(C)CC(=O)N(C)[C@@H](C(C)C)C(=O)O[C@@H]2C)c(N)c1=O` (I: T[dV]P[Sar][NMeV] / II: T[dV]P[Sar][NMeV]; ester I:1-I:C, II:1-II:C; linker I:N-II:N via Actinocin(9to1)), inactive: -12.6%.
In the case of `CCOC(=O)c1cccc(NC(=O)NC(C)c2c(-n3cccc3)sc3c2CCN(C)C3)c1` (configuration not stated), the “activation” value was inactive: -17.1%.
Then `Cc1cc2c(cc3c(SCC(=O)Nc4ccc(Cl)cc4F)nncn32)o1`, with inactive: -8.02%.
Under `Cc1ccc(S(=O)(=O)c2nc(-c3ccccc3F)oc2NCc2ccccc2)cc1` stands inactive: -4.65%.
In the case of `Cc1nc(N2CCOCC2)c2c(C(=O)N3CCN(c4ccccc4)CC3)c(C)oc2n1`, the “activation” value was inactive: -4.34%.
As to `COCCCN1C(=O)c2oc3ccccc3c(=O)c2C12C(=O)N(C)c1ccccc12` (configuration not stated), the “activation” value is inactive: -26.3%.
Then `O=C(COc1ccccc1F)Nc1ccc(OCc2cc(=O)n3ccccc3n2)cc1`, with inactive: 6.04%; and `COc1ccc(CC(=O)N2CCc3cc(OC)c(OC)cc3C2COc2ccc3c(C)cc(=O)oc3c2)cc1OC` (configuration not stated), with inactive: -18.6%; and `COC(=O)c1ccc(Cn2c(SCc3ccc(F)cc3)nc3ccncc32)cc1`, with inactive: -13.5%.
Then `Cc1ccc(CNC(=O)CSC2=Nc3ccccc3N=C(c3ccc(F)cc3)C2)cc1`, with inactive: -5.37%; and `O=c1ccc2cc(S(=O)(=O)Nc3ccc(OC(F)(F)F)cc3)ccc2[nH]1`, with inactive: -17.8%; and `CCOc1ccc(NC(=O)CCc2c(C)nc3c(-c4ccccc4)c(C)nn3c2C)cc1`, with inactive: 2.86%.
Then `CCOc1ccc(Nc2nn(-c3ccc(OC(F)(F)F)cc3)nc2C(C)=O)cc1`, with inactive: -4.79%; and `CCc1ccc(OCC(=O)Nc2ncn[nH]2)c(Br)c1`, with inactive: -15.5%.
In the case of `COc1cccc(-c2noc(-c3cc(C(C)C)[nH]n3)n2)c1OC`, the “activation” value is inactive: -16.8%.
Then `COc1cccc(Cn2c(-c3nonc3NC(C)=O)nc3ccccc32)c1`, with inactive: 0.343%.
Consider `Cc1cc(C)cc(NC(=O)c2c(C)oc3nc(C)nc(N4CCCC4)c23)c1`, for which the “activation” value was inactive: -15.2%.
Then `COCCc1ccc(OCC2CO2)cc1` (configuration not stated), with inactive: -5.92%; and `CC(C)CCn1c(=O)c2cccnc2n(CC(=O)Nc2ccccc2F)c1=O`, with inactive: -33.1%; and `O=C(COc1ccc(F)cc1)NCc1ccc2c(c1)CCN2C(=O)c1ccccc1`, with inactive: -20.3%.
For `CNC(=O)c1ccc2c(c1)N(Cc1ccccc1Cl)C(=O)c1ccccc1S2`, the “activation” value is inactive: -11.6%.
Then `Cc1cccc(NC(=O)c2sc3nc(-c4cc5ccc(O)cc5oc4=O)[nH]c(=O)c3c2C)c1`, with inactive: 18%; and `O=C(Cn1c(=O)nc(-c2ccccc2F)c2cc(Cl)ccc21)NCCCc1ccccc1`, with inactive: -10.1%; and `CC(=O)OC[C@H]1O[C@@H](OC(C)=O)[C@H](OC(C)=O)[C@@H]1OC(C)=O`, with inactive: -5.51%.
As for `COc1ccccc1CNC(=O)CCNS(=O)(=O)c1ccc2c(c1)oc(=O)n2C`, the “activation” value was inactive: -6.96%.
Under `COc1ccc2c(c1)c(CC(=O)OCC(=O)O)c(C)n2C(=O)c1ccc(Cl)cc1` stands inactive: -9.41%.
`CCOc1c(Cl)cc(C(=O)N(Cc2ccc(N(C)C)cc2)Cc2ccco2)cc1Cl`: the “activation” value was inactive: -14.7%.
Under `COc1ccc(CNC(=O)C2CCCN(c3nnc(C)c4c(C)n(-c5ccc(C)cc5)nc34)C2)cc1` (configuration not stated) stands inactive: -7.81%; under `COc1ccc(N2CCN(Cc3nnc(-c4ccc5c(c4)OCO5)o3)CC2)cc1`, inactive: -8.11%.
Under `Cc1ccc(C)c(Cn2c3ccccc3c3cnn(CC(=O)NCCc4ccccc4)c(=O)c32)c1` stands inactive: -16.9%; under `Cc1ccc2c(c1)c1c3n2CCN(C(=O)c2cccc(C(F)(F)F)c2)C3CCC1` (configuration not stated), inactive: -15%; under `CCc1cccc(C)c1Nc1c(-c2ccsc2)nc2ncccn12`, inactive: -13.7%.
On to `Cc1ccc(-n2nc(C)c3nc(CCC(=O)Nc4cccc(F)c4)c(=O)n(C)c32)cc1`, for which the “activation” value is inactive: -18.8%.
As to `Cc1cccc(CNC(=O)CCCN2C(=O)CCn3nc(-c4cccn4C)cc32)c1`, the “activation” value was inactive: -8.15%.
Take `Clc1ccc(-c2noc(-c3cccnc3NCc3ccco3)n2)cc1`: the “activation” value was inactive: 8.74%.
In the case of `COc1ccc(C2CC(=O)c3cc(-c4nc(-c5cccc(Cl)c5)cs4)c(=O)[nH]c3C2)cc1` (configuration not stated), the “activation” value was inactive: -9.7%.
On to `Cc1ccc2c(=O)cc(C(=O)Nc3sc4c(c3C(=O)NCC3CCCO3)CCCC4)oc2c1` (configuration not stated), for which the “activation” value is inactive: -25.9%.
Under `CCOc1ccccc1N(C)C(=O)c1c2c(nc3ccccc13)C(=O)N(C1CCCCC1)C2` stands inactive: -18.2%.
For the compound `O=S(=O)(c1ccc(Cl)cc1Cl)n1ccnc1`, the “activation” value was inactive: -14.2%.
Then `CSc1oc(-c2cccs2)nc1S(=O)(=O)c1ccc(Br)cc1`, with inactive: -26.7%; and `CCC1CN(C(=O)N2CCC(C(=O)N3CCN(c4ccccc4F)CC3)CC2)c2ccccc2O1` (configuration not stated), with inactive: -5.92%.
Under `CCC(Sc1nc2ncccc2o1)C(=O)Nc1ccc(OC)c(OC)c1` (configuration not stated) stands inactive: -4.94%; under `COc1ccc(C(=O)Nc2nc3ccccc3n2CCOc2ccc(Cl)cc2)cc1`, inactive: -7.62%.
Then `CCOc1ccc(N(CC)C(=O)CCc2nc(-c3ccccc3F)no2)cc1`, with inactive: -11%.
For the compound `CNC(=O)c1cnc2sc(N3CCCCCC3)nn2c1=O`, the “activation” value is inactive: -23.4%.
Then `CCc1ccc(NC(=O)C(Cc2ccccc2)NS(=O)(=O)c2ccc3c(c2)c(=O)n(C)c(=O)n3C)cc1` (configuration not stated), with inactive: -14%; and `CCCOc1ccc(Oc2nc(NCC(C)C)nc(N(C)C)n2)nn1`, with inactive: -10.8%; and `COc1cccc(NC(=O)Cn2nc(C)c3c(C)n(-c4ccccc4)nc3c2=O)c1`, with inactive: -3.97%.
For the compound `CCC(Sc1nnc(-c2ccc(OC)c(OC)c2)c(-c2ccc(OC)c(OC)c2)n1)C(=O)NC1CCCC1` (configuration not stated), the “activation” value was inactive: -18.7%.
As for `O=C(NCCc1ccccc1)c1ccc(Cn2c(SCc3ccccc3)nc3cccnc32)cc1`, the “activation” value is inactive: -9.6%.
In the case of `Cc1cccn2c(=O)cc(CSc3nnc(NC(=O)c4ccc(F)cc4)s3)nc12`, the “activation” value was inactive: -10.4%.
As for `Cc1cccc(C)c1NC(=O)c1sc(-n2nc(C)c(Cc3ccc4c(c3)OCO4)c2C)nc1C`, the “activation” value is inactive: 0.361%.
Then `CCC(C(=O)Nc1ccc(C)c(Cl)c1)n1c(=O)c(-c2ccccc2NC(C)=O)nc2ccccc21` (configuration not stated), with inactive: -12.6%; and `COc1ccc(Cl)cc1NC(=O)Cn1c(=O)c2ccccc2n2nncc12`, with inactive: -15.3%; and `O=C1C(O)=C(O)C(=O)C(O)=C1O`, with inactive: -1.23%.
Then `Clc1ccc(NCc2nc3ccccc3n2CCOc2ccccc2)cc1`, with inactive: -10.9%; and `Cc1nc(-n2nc(C)c(CCC(C)C)c2C)sc1C(=O)Nc1cccc(Cl)c1`, with inactive: -1.02%.
Under `CCN(C(=O)CSc1nc2ccccc2nc1Cc1ccc(F)cc1)c1cccc(C)c1` stands inactive: -7.63%; under `Cc1nccn1CC1CCc2c(c3ccccc3n2C)C1=O` (configuration not stated), inactive: 6.72%; under `Cc1ccc(NC(=O)Cn2nc3c(cc2=O)CCCC3)cc1Cl`, inactive: 1.15%.
In the case of `COc1cc(CNCCSc2nnnn2C)ccc1OCc1ccc(Cl)cc1Cl`, the “activation” value is inactive: 5.58%.
For the compound `COc1cc(NC(=O)N2CCC(CN3CCCCCC3)CC2)cc(OC)c1OC`, the “activation” value is inactive: -6.64%.
Consider `CCc1ccc(NC(=O)Cn2cc(S(=O)(=O)c3ccc(F)cc3)c(=O)c3cc(OC)ccc32)cc1`, for which the “activation” value was inactive: -13.1%.
Then `CC(=O)c1ccc(NC(=O)CCc2c(C)nn(-c3ccc4nnc(C)n4n3)c2C)cc1`, with inactive: 2.07%.
Under `CC(C)CC(C(=O)NCC1CCN(Cc2ccc(F)cc2)CC1)N1Cc2ccccc2C1=O` (configuration not stated) stands inactive: -7.92%.
With `COc1ccc(NC(=O)C2CCC(CNS(=O)(=O)c3ccc(Br)s3)CC2)c(OC)c1` (configuration not stated), the “activation” value is inactive: -7.71%.
Turning to `CCn1cc(C(=O)N2CCN(c3cc(Cl)ccc3C)CC2)c(=O)c2cc(S(=O)(=O)N3CCCCC3)ccc21`, the “activation” value is inactive: -10.5%.
